Measurements published in publication PMC11535055, “ER-phagy restrains inflammatory responses through its receptor UBAC2” (The EMBO Journal, 2024).
Positions count from the first letter of the chain named. Names may count otherwise. Read-outs that look alike come from different tables or passages of the source. Results are given in words; binding and its absence hold for the method and conditions named. Binding seen in cells or lysates may run through a third protein. Some entries that bind do so weakly or less than the wild type. For some assays here: Tags and fused reporters may be left off the sequences shown.

By UniProt entry, the sequences of proteins in these tests, tags left out. Residues count along the entry.
UniProt O95166: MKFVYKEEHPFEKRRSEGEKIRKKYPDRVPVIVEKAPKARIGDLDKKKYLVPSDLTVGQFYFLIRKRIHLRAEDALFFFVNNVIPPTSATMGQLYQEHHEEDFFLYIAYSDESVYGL
UniProt P60520: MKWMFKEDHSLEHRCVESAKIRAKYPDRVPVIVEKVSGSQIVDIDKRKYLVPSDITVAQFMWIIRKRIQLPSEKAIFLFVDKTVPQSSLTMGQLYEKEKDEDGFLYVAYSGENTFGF
UniProt Q9BXW4, residues 1-126: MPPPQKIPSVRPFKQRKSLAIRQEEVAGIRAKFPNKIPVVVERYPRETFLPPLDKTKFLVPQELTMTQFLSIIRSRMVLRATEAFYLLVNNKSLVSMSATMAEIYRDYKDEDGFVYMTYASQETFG
UniProt Q676U5: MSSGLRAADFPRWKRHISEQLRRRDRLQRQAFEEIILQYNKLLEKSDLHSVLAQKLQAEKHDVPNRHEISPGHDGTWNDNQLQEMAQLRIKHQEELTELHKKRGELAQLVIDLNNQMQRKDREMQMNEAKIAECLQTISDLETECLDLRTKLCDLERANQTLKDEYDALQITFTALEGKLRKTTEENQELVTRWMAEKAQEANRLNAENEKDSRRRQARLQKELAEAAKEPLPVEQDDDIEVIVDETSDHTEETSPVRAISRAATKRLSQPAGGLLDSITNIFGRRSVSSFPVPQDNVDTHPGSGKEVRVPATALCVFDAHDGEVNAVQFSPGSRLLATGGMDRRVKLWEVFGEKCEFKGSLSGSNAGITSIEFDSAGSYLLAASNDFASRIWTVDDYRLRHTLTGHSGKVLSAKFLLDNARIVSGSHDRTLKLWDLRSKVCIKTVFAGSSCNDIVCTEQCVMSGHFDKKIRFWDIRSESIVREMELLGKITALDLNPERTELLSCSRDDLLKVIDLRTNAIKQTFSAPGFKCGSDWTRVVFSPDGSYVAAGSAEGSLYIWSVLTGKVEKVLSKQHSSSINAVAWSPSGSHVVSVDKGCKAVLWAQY
UniProt Q9H6L5: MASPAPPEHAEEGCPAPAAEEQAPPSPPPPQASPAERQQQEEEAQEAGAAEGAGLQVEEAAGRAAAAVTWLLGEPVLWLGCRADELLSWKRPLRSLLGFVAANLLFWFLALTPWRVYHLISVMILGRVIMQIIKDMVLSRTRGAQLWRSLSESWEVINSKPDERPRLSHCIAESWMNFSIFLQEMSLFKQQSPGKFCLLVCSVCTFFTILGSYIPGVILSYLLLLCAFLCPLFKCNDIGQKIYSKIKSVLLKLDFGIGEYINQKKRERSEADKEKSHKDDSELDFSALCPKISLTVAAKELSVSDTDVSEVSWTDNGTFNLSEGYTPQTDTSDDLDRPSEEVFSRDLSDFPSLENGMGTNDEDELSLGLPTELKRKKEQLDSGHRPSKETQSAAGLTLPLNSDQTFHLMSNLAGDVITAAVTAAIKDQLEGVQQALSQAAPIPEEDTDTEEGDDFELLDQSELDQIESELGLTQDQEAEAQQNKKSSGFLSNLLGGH
UniProt Q7KZI7: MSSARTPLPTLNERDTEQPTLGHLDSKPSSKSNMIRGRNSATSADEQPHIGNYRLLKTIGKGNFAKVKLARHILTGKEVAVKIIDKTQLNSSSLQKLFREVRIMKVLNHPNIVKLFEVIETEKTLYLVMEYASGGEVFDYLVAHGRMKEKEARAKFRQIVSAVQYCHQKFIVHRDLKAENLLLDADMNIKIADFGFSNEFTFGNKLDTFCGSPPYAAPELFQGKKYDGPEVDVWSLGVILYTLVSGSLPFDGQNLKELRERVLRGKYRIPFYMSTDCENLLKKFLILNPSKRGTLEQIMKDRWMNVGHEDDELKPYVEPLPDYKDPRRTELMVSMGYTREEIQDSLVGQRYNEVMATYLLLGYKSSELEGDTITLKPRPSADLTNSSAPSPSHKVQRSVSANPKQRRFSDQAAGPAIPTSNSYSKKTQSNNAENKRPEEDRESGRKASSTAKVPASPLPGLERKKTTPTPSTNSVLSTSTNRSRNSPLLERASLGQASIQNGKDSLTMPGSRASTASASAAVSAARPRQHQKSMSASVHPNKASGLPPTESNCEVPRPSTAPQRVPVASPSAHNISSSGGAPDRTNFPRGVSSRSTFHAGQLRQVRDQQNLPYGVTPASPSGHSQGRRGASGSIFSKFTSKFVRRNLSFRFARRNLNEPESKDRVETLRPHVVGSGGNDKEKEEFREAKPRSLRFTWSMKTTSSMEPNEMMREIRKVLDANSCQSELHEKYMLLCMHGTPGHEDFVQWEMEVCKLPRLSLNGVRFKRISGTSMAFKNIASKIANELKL

Tests used:
[1] = molecular target: T1, UBAC2 (co-IP of Appendix Fig. S1H) (human) (UniProt Q8NBM4); test: co-IP; co-IP and immunoblot with and without starvation-induced autophagy (Appendix Fig. S1H); cells and antibodies not told in the text shown
T1 sequence: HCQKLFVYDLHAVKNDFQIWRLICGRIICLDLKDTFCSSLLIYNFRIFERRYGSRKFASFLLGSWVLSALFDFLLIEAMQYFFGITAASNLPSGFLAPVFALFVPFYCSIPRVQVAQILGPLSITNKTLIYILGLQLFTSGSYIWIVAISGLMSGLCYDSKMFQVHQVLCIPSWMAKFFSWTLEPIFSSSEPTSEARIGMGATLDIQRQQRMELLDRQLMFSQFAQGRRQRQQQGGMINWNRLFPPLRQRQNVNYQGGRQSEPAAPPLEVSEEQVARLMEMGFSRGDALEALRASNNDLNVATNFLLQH

[2] = molecular target: T2, UBAC2, endogenous (human (endogenous in HeLa, THP-1, HT-29)) (UniProt Q8NBM4); test: co-IP; extracts of HeLa cells incubated with or without EBSS for 3 h in the presence of Baf A1 (0.2 uM); IP with anti-UBAC2, immunoblot with indicated antibodies; endogenous proteins
T2 sequence: T1 sequence

[3] = molecular target: HA-UBAC2 (ubiquitin-associated domain-containing protein 2), wild type (human) (UniProt Q8NBM4); test: co-IP; Flag-UBAC2 and HA-UBAC2 co-expressed in 293T cells; IP with anti-Flag, immunoblot with anti-HA; with TG or EBSS treatment
Flag-GABARAP, wild type [4] = molecular target: Flag-GABARAP, wild type (UniProt O95166); test: co-IP; HA-UBAC2 (WT or mutant) and Flag-tagged ATG8 family member co-expressed in HEK293T/293T cells; IP with anti-Flag (M2) beads, immunoblot with anti-HA; untreated or with TG (1 uM), EBSS, Baf A1 (0.2 uM) or MARK2 siRNA; beads washed 5 times with low-salt lysis buffer (50 mM HEPES, 150 mM NaCl, 1% Triton X-100)
Flag-GABARAPL2 = Flag-GABARAPL2 (UniProt P60520); test: as above
Flag-LC3A = Flag-LC3A (UniProt Q9H492); test: as above
Flag-LC3C = Flag-LC3C (UniProt Q9BXW4); test: as above
[5] = molecular target: T2, UBAC2, endogenous (human (endogenous in HeLa, THP-1, HT-29)); test: co-IP; lysates of HeLa cells, THP-1 macrophages or HT-29 cells treated with TG (1 uM) or EBSS in the presence of Baf A1 (0.2 uM); immunoprecipitation and immunoblot of endogenous proteins; precipitating antibody not told
Flag-GABARAP, wild type [6] = molecular target: Flag-GABARAP, wild type (UniProt O95166); test: co-IP; HA-UBAC2 (WT or mutant) and Flag-tagged ATG8 family member co-expressed in HEK293T/293T cells; IP with anti-Flag (M2) beads, immunoblot with anti-HA; untreated or with TG (1 uM), EBSS, Baf A1 (0.2 uM) or MARK2 siRNA; beads washed 5 times with low-salt lysis buffer (50 mM HEPES, 150 mM NaCl, 1% Triton X-100); remark: listed apart in the source
[7] = molecular target: GABARAP, endogenous (human (endogenous in HeLa)) (UniProt O95166); test: co-IP; extracts of HeLa cells incubated with TG (1 uM) or EBSS for various times; IP with anti-GABARAP, immunoblot for UBAC2; endogenous proteins
[8] = molecular target: T2, UBAC2, endogenous (human (endogenous in HeLa, THP-1, HT-29)); test: cross-linking; lysates of MARK2 KO THP-1 macrophages or MARK2 KO HT-29 cells treated with TG (1 uM, 1 h) or EBSS (3 h) with Baf A1 (0.2 uM); 2 mM DSS, immunoblot for endogenous UBAC2

## ATG16L1 (from UniProt Q676U5 1-607)
[1]
  binding: binds

## FAM134B, endogenous (from UniProt Q9H6L5 1-497)
[2]
  binding: binds weakly

## HA-UBAC2 (ubiquitin-associated domain-containing protein 2), wild type (from UniProt Q8NBM4 36-344)
[3]
  binding: binds
Flag-GABARAP, wild type [4]
  binding: binds
Flag-GABARAPL2
  binding: binds
Flag-LC3A
  binding: binds
Flag-LC3C
  binding: binds

## microtubule affinity-regulating kinase 2 (MARK2), endogenous (from UniProt Q7KZI7 1-788) (enzyme)
[5]
  binding: binds

B1: WIPI2 (protein, UniProt Q9Y4P8 1-454)
chain: MNLASQSGEAGAGQLLFANFNQDNTEVKGASRAAGLGRRAVVWSLAVGSKSGYKFFSLSSVDKLEQIYECTDTEDVCIVERLFSSSLVAIVSLKAPRKLKVCHFKKGTEICNYSYSNTILAVKLNRQRLIVCLEESLYIHNIRDMKVLHTIRETPPNPAGLCALSINNDNCYLAYPGSATIGEVQVFDTINLRAANMIPAHDSPLAALAFDASGTKLATASEKGTVIRVFSIPEGQKLFEFRRGVKRCVSICSLAFSMDGMFLSASSNTETVHIFKLETVKEKPPEEPTTWTGYFGKVLMASTSYLPSQVTEMFNQGRAFATVRLPFCGHKNICSLATIQKIPRLLVGAADGYLYMYNLDPQEGGECALMKQHRLDGSLETTNEILDSASHDCPLVTQTYGAAAGKGTYVPSSPTRLAYTDDLGAVGGACLEDEASALRLDEDSEHPPMILRTD
[1]
  binding: binds

B2: HA-UBAC2 S223A (protein, UniProt Q8NBM4 36-344)
chain: T1 sequence with S188A
Flag-GABARAP, wild type [6]
  binding: binds

B3: HA-UBAC2 LIR mutant (LIRm; W275A and L278A) (protein, UniProt Q8NBM4 36-344)
chain: T1 sequence with W240A, L243A
Flag-GABARAP, wild type [6]
  binding: no binding

B4: UBAC2 S223D, transfected (cross-linking experiments) (natural protein, human, UniProt Q8NBM4 36-344, looked up)
chain: T1 sequence with S188D
notes: UBAC2, human; also called S223D mutant form of UBAC2
Flag-GABARAP, wild type [6]
  binding: binds

B5: UBAC2, endogenous (natural protein, human (endogenous in HeLa, THP-1, HT-29), UniProt Q8NBM4 36-344, looked up)
chain: T1 sequence
notes: UBAC2 endogenous in human cell lines; also called ubiquitin-associated domain-containing protein 2; source: endogenous, lysates of HeLa cells, THP-1-derived macrophages and HT-29 cells
[7]
  binding: binds
[8]
  binding: no binding (condition: in MARK2 KO cells)
